B1: K38 bsAb (CD47xPD-L1 bispecific antibody with the K38 CD47 arm) (bispecific antibody, part only; not given: PD-L1 lambda arm, part only)
heavy: [sequence of about 120 residues omitted]ASTKGPSVFPLAPCSRSTSESTAALGCLVKDYFPEPVTVSWNSGALTSGVHTFPAVLQSSGLYSLSSVVTVPSSSLGTKTYTCNVDHKPSNTKVDKRV[sequence of human IgG4 Fc with S228P (EU numbers) omitted]
light: DIQMTQSPSSLSASVGDRVTITCRASQVIANWLNWYQQKPGKAPKLLIYAGSHLQSGVPSRFSGSGSGTDFTLTISSLQPEDFATYYCQQMHPRAPKTFGQGTKVEIKRTVAAPSVFIFPPSDEQLKSGTASVVCLLNNFYPREAKVQWKVDNALQSGNSQESVTEQDSKDSTYSLSSTLTLSKADYEKHKVYACEVTHQGLSSPVTKSFNRGEC
B2: K33 bsAb (CD47xPD-L1 bispecific antibody with the K33 CD47 arm) (bispecific antibody, part only; not given: PD-L1 lambda arm, part only)
heavy: [sequence of about 120 residues omitted]ASTKGPSVFPLAPCSRSTSESTAALGCLVKDYFPEPVTVSWNSGALTSGVHTFPAVLQSSGLYSLSSVVTVPSSSLGTKTYTCNVDHKPSNTKVDKRV[sequence of human IgG4 Fc with S228P (EU numbers) omitted]
light: DIQMTQSPSSLSASVGDRVTITCRASQSISSYLNWYQQKPGKAPKLLIYAASSLQSGVPSRFSGSGSGTDFTLTISSLQPEDFATYYCQQFHKRSPQKFGQGTKVEIKRTVAAPSVFIFPPSDEQLKSGTASVVCLLNNFYPREAKVQWKVDNALQSGNSQESVTEQDSKDSTYSLSSTLTLSKADYEKHKVYACEVTHQGLSSPVTKSFNRGEC

Biological target: recombinant human CD47 soluble protein (human) (UniProt Q08722)
Sequence of UniProt Q08722 (Q08722 19-139 limits assumed): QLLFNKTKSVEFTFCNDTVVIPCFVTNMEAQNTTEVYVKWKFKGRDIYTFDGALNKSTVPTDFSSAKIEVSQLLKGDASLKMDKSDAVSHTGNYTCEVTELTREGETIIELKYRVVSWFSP
Experiment: sandwich ELISA, antibody captured on anti-human Fc, biotinylated rec. human CD47 titrated (x axis), fluorescence

Binder | EC50 (read off the curve) [nM]
B1 | 0.07
B2 | 0.1

From US20220315655A1
